Laboratory results reported in ChEMBL document CHEMBL4888484, “Replenishing the malaria drug discovery pipeline: Screening and hit evaluation of the MMV Hit Generation Library 1 (HGL1) against asexual blood stage Plasmodium falciparum ,using a nano luciferase reporter read-out” (2022).
Screen size: about 150,000 compounds; about 540 (0.36%) showed an effect of 50% or more. Some of the results follow.

Each compound was assayed on Plasmodium falciparum (assay: Primary screen in NF54 nanoGlo assay, in single point, at 2uM, 72h; a lower Z score goes with more inhibition). Details: timepoint 72 hour.
Type: functional, Erythrocyte
In the case of `Fc1ccc(-c2n[nH]cc2-c2nc3ncccc3[nH]2)c(F)c1`, the “% Inhibition” value was -5% and the Z score was 0.88.
For `O=C(NCc1cccnc1)c1cccc(S(=O)(=O)N2CCOCC2)c1`, the “% Inhibition” value was 5% and the Z score was -0.81.
In the case of `Cc1cc(S(=O)(=O)N2CCN(C)CC2)cc2c1NC(=O)C2(C)C`, the “% Inhibition” value was -7% and the Z score was 1.1.
`C[C@]1(O)CCN(C(=O)Cc2nc3cc(Cl)ccc3[nH]2)C[C@H]1O` was tested, and the “% Inhibition” value was -28% and the Z score was 2.45.
For `COc1cc(=O)n(C)cc1C(=O)N1CCc2ccccc2C1`, the “% Inhibition” value was -5% and the Z score was 0.74.
For `CN1CCC(CN(CCc2ccccc2)C(=O)C2CCCC2)CC1`, the “% Inhibition” value was 5% and the Z score was -0.68.
`Cn1c(=O)[nH]c(=O)c2[nH]c(CCC(=O)N3CCC[C@H]3C=Cc3ccccc3)nc21` was tested, and the “% Inhibition” value was -1% and the Z score was 0.16.
In the case of `CC#CC(=O)N1CCC(O)(Cc2ccc(OC(F)(F)F)cc2)CC1`, the “% Inhibition” value was -2% and the Z score was 0.48.
With `CS(=O)(=O)N1C[C@H]2CN(C(=O)c3ccc4ccccc4n3)CC[C@@]2(CO)C1` the “% Inhibition” value was -2% and the Z score was 0.21.
With `Cc1cc(NC(=O)c2csnn2)no1` the “% Inhibition” value was -16% and the Z score was 1.43.
In the case of `O=C(NC(c1ccccn1)C1CCCC1)N1CCOCC1C1CC1` (stereo unspecified), the “% Inhibition” value was -6% and the Z score was 0.77.
With `Cc1cc(OCCN2CCOCC2)c(C)c2c1CC[C@@H]([C@H](C)C(=O)NC(C)(C)C)C2` the “% Inhibition” value was -16% and the Z score was 2.48.
In the case of `Cc1ccc(CNCC2CCOC2c2cnn(C)c2)s1` (stereo unspecified), the “% Inhibition” value was -13% and the Z score was 1.16.
`Cc1cnc(CN2C[C@]3(CCCN(C(=O)OC(C)C)C3)CCC2=O)cn1` was tested, and the “% Inhibition” value was 0% and the Z score was 0.02.
`CNS(=O)(=O)C1CCN(c2nc(C(C)C)no2)CC1` was tested, and the “% Inhibition” value was -7% and the Z score was 0.84.
In the case of `Cc1ccc(C(=O)Nc2ncn(CC(=O)N3CCN(c4ccccc4)CC3)n2)cc1`, the “% Inhibition” value was -2% and the Z score was 0.21.
For `COc1ccc(/C=C/CN2C[C@H]3CCN(C)[C@H]3C2)cc1`, the “% Inhibition” value was -11% and the Z score was 2.14.
`O=C(c1ccccc1Oc1ccccc1)N1C[C@H]2CC[C@@H](C1)[C@H]2O` was tested, and the “% Inhibition” value was -8% and the Z score was 0.91.
With `CCC(CC)c1nnc(NC(=O)C2CCOCC2)s1` the “% Inhibition” value was -14% and the Z score was 1.8.
For `CC(C)N1CCN(Cc2cccc(OCCCn3ccnc3)c2)C[C@@H]1C`, the “% Inhibition” value was -10% and the Z score was 2.06.
In the case of `COc1ccc(C(=O)N2CC(c3nc(CCOCC4CC4)no3)C2)cc1F`, the “% Inhibition” value was 1% and the Z score was -0.08.
With `Cc1nc2c(c(=O)n1C)CN(C(=O)CCC(F)(F)F)C2` the “% Inhibition” value was 3% and the Z score was -0.43.
For `CN(C(=O)[C@H]1CC(=O)N(C2CCCC2)C1)C1(C#N)CCC1`, the “% Inhibition” value was -3% and the Z score was 0.41.
For `CCOC(=O)N1CCN(C(=O)[C@H]2CCCN(c3nccn4nc(-c5cccc(Cl)c5)cc34)C2)CC1`, the “% Inhibition” value was -1% and the Z score was 0.15.
With `OCCN1CCC[C@H](c2nc(-c3ccc(F)c(F)c3)n[nH]2)C1` the “% Inhibition” value was -3% and the Z score was 0.49.
For `O=S(=O)(NCC1(CCO)CC1)C1CC1`, the “% Inhibition” value was 3% and the Z score was -0.47.
In the case of `Cc1cc(NC2CCCCC2)c2nncn2n1`, the “% Inhibition” value was -1% and the Z score was 0.18.
`O=C(Nc1ccn(C2CCCCC2)n1)N1CCC[C@H](CO)CC1` was tested, and the “% Inhibition” value was -17% and the Z score was 2.24.
With `COc1ccc2cc1Oc1cccc(c1)CO[C@H]1CCN(c3nc(N)c4cnn(C)c4n3)C[C@H]1NC(=O)CC2` the “% Inhibition” value was 4% and the Z score was -0.49.
`COc1ccccc1C(=O)N1CCN(C2CC2)CC1` was tested, and the “% Inhibition” value was -2% and the Z score was 0.3.
`Cc1ccc(Oc2cccc(NC(=O)Nc3ccc4c(c3)OCCO4)c2)nn1` was tested, and the “% Inhibition” value was 5% and the Z score was -0.67.
For `CCCn1ncc(C)c1NC(=O)c1ccc2c(c1)OCCO2`, the “% Inhibition” value was -8% and the Z score was 1.27.
`Cc1cc(OC2CCN(C(=O)c3ccoc3)CC2)cc(=O)n1C` was tested, and the “% Inhibition” value was -9% and the Z score was 1.5.
For `COc1cc2c(cc1OC)CN([C@H]1CCCN(C(=O)c3cc(C)[nH]n3)C1)CC2`, the “% Inhibition” value was -14% and the Z score was 1.22.
With `Cc1ccc(-c2csc(NC(=O)c3ccncc3)c2C(N)=O)cc1C` the “% Inhibition” value was -7% and the Z score was 1.15.
In the case of `Cc1cc(C)nc(O[C@H]2CCCN(C(=O)c3cccn(C)c3=O)C2)n1`, the “% Inhibition” value was -2% and the Z score was 0.22.
In the case of `CCC(F)(F)CN1CCC[C@H](c2cc(N3CCNCC3)[nH]n2)C1`, the “% Inhibition” value was -4% and the Z score was 0.8.
`CO[C@H]1[C@H](NC(=O)Cc2cccs2)c2ccccc2C12CCN(Cc1ccccc1C)CC2` was tested, and the “% Inhibition” value was 4% and the Z score was -0.78.
For `CCN(Cc1ccc(C)o1)C(=O)NCCN1CCCC[C@@H]1CO`, the “% Inhibition” value was -5% and the Z score was 0.47.
With `Cc1ccc2c(c1)ncc1c(-c3ccccc3)nn(-c3ccc(F)cc3)c12` the “% Inhibition” value was 34% and the Z score was -4.58.
`CCN(CC1CCN(C2CCN(C)CC2)CC1)C(=O)[C@@H]1COc2c(cccc2OC)C1` was tested, and the “% Inhibition” value was -5% and the Z score was 0.82.
`CN(C)c1nccc(CN2C[C@H](CO)OC(C)(C)C2)n1` was tested, and the “% Inhibition” value was 3% and the Z score was -0.61.
For `COc1ccc(N2C(=O)[C@@H](C)CS2(=O)=O)cc1S(=O)(=O)NCc1ccccn1`, the “% Inhibition” value was 0% and the Z score was -0.05.
With `O=C([C@H]1CCC[C@H](O)C1)N(CCC1=CCCCC1)Cc1ccccc1` the “% Inhibition” value was -6% and the Z score was 1.29.
With `CCc1n[nH]c(=O)c(C(=O)Nc2cc(CC(C)(C)C)nn2C)c1CC` the “% Inhibition” value was -9% and the Z score was 1.38.
In the case of `CC(C)(C(=O)Nc1nc2ccc(F)cn2n1)c1cccs1`, the “% Inhibition” value was -8% and the Z score was 0.9.
`COc1cccc(CNC(=O)c2ccc(Oc3ccnc(-c4ccc(F)cc4)n3)cc2)c1` was tested, and the “% Inhibition” value was -10% and the Z score was 1.34.
For `C[C@@H](c1ccccn1)N(Cc1ccccc1)Cc1nnc2n1CCOCC2`, the “% Inhibition” value was -9% and the Z score was 1.46.
In the case of `Cc1ccc(CNc2ncccc2-c2nc(-c3ccccc3C)no2)cc1`, the “% Inhibition” value was 11% and the Z score was -1.26.
For `COc1cccc(CN2CCN3C(=O)c4ccccc4OCC[C@@H]4CC[C@@H](NC(=O)NC(C)C)[C@@H](CNC(=O)[C@@H]3C2)O4)c1`, the “% Inhibition” value was 5% and the Z score was -0.58.
With `CCc1cc(C(=O)N2CCC3(CC2)[C@H](O)C[C@@H]3O)ccn1` the “% Inhibition” value was -9% and the Z score was 1.14.
`CCN(Cc1[nH]nc(C)c1Cl)C1CCOCC1` was tested, and the “% Inhibition” value was 8% and the Z score was -1.6.
For `CC(OCC1CCCO1)C(=O)N1CCC(=O)c2cc(O)ccc21` (stereo unspecified), the “% Inhibition” value was -14% and the Z score was 2.82.
For `CCN(C(=O)[C@@H]1COCCO1)c1ccc(Br)cn1`, the “% Inhibition” value was -5% and the Z score was 0.61.
With `CN(C)C(=O)CCc1cc2ccccc2nc1O` the “% Inhibition” value was -8% and the Z score was 1.52.
For `Cc1nccn1CCN(C)c1cc(NC2CC2)nc(N)n1`, the “% Inhibition” value was -1% and the Z score was 0.14.
With `O=C([C@@H]1COc2cc(S(=O)(=O)N3CCC(Cc4ccccc4)CC3)ccc2O1)N1CCOCC1` the “% Inhibition” value was -5% and the Z score was 0.53.
With `C[C@@H](CCc1ccccc1)NC(=O)c1n[nH]c(=O)c2ccccc12` the “% Inhibition” value was -9% and the Z score was 1.65.
In the case of `O=C(NCc1ccon1)c1cccc(S(=O)(=O)N[C@H]2CCOC2)c1`, the “% Inhibition” value was -15% and the Z score was 2.25.
For `Cn1ccc(CCNC(=O)c2cnsn2)n1`, the “% Inhibition” value was -6% and the Z score was 0.76.
For `CN(CC=CCN(C)c1ccn(C)n1)c1ccn(C)n1`, the “% Inhibition” value was -10% and the Z score was 1.16.
With `Cn1cc(C(=O)N[C@H]2CC(=O)N(Cc3cccc4ccccc34)C2)ccc1=O` the “% Inhibition” value was -2% and the Z score was 0.29.
In the case of `CC1CCN(S(=O)(=O)c2ccc3c(ccc(=O)n3CC(=O)NCc3ccccn3)c2)CC1`, the “% Inhibition” value was -15% and the Z score was 1.89.
In the case of `CC(C)CCNC(=O)c1[nH]cnc1C(=O)N1C[C@@H](C)O[C@@H](C)C1`, the “% Inhibition” value was 15% and the Z score was -1.77.
In the case of `COCCC(=O)NCc1sc(COC)nc1C`, the “% Inhibition” value was -3% and the Z score was 0.36.
For `COc1ccc([C@@H]2CCCN2C(=O)c2cnsn2)cc1OC`, the “% Inhibition” value was -5% and the Z score was 0.49.
For `Cc1cc(C)n(CCN2CCC[C@@H]2CNC(=O)OC(C)(C)C)n1`, the “% Inhibition” value was 2% and the Z score was -0.18.
In the case of `CC(C)(C)OC(=O)NC1CCCC1NC1CC2CCC1O2` (stereo unspecified), the “% Inhibition” value was -7% and the Z score was 1.3.
For `Cc1nc2c(c(N(C)C[C@H]3CCN(C)C3)n1)Cc1ccccc1OC2`, the “% Inhibition” value was -13% and the Z score was 2.52.
`COc1ccc(N2CCN(C[C@H]3CCOC3)CC2(C)C)cc1` was tested, and the “% Inhibition” value was -6% and the Z score was 1.02.
For `CCCCC(=O)N1CCC[C@H]1c1nnc(C(=O)Nc2ccc3c(c2)OCO3)s1`, the “% Inhibition” value was -11% and the Z score was 1.22.
With `CCc1cc(Cl)ccc1NC(=O)NC[C@H](O)CN(C)C` the “% Inhibition” value was -1% and the Z score was 0.16.
With `COc1cccc(CN2CC=C(C(=O)N3CCN(c4ccccc4Cl)CC3)CC2)c1` the “% Inhibition” value was -3% and the Z score was 0.52.
With `Cc1noc(COCC(=O)N[C@@H](CNC(=O)OC(C)(C)C)c2ccc3ccccc3c2)n1` the “% Inhibition” value was -5% and the Z score was 0.56.
`Cc1ccccc1CNC(=O)c1ccc(S(=O)(=O)N2CCC(C)CC2)s1` was tested, and the “% Inhibition” value was -2% and the Z score was 0.27.
In the case of `COc1ccc(NC(=O)c2ccccc2NC(=O)C(=O)N2CCOCC2)cc1`, the “% Inhibition” value was -17% and the Z score was 2.21.
For `CNC(=O)Cc1csc(NC(=O)CCn2cnnn2)n1`, the “% Inhibition” value was -13% and the Z score was 1.64.
`CCCn1cc(CNC(=O)[C@H]2CCCN(c3nnc4cccc(C)n34)C2)c(C)n1` was tested, and the “% Inhibition” value was -12% and the Z score was 2.05.
`Cc1csc(CCC(=O)N2CC(O)CC2c2ccccc2)n1` (stereo unspecified) was tested, and the “% Inhibition” value was -12% and the Z score was 2.
`COc1ccc(NC(=O)N2CCC[C@H](Oc3ccncc3Cl)C2)cc1OC` was tested, and the “% Inhibition” value was 1% and the Z score was -0.12.
For `O=S(=O)(Nc1ccccc1-c1cn2c(n1)CCCC2)N1CCCC1`, the “% Inhibition” value was -10% and the Z score was 1.17.
For `CC1(S(=O)(=O)NCc2nc(C(F)(F)F)c[nH]2)CC1`, the “% Inhibition” value was -5% and the Z score was 0.96.
In the case of `Cc1nc(Cn2nnc(CN(C)C(=O)c3ccccc3)n2)sc1C`, the “% Inhibition” value was -8% and the Z score was 1.38.
